Test results: the supplement of paper PMC3334620
Over roughly 33,000 sequences, “E-score (-0.5 to 0.5)” has its median near -0.013; the highest 2% begin near 0.3. The list shows a part of the results.

Target: T1, Msn1 (UniProt P22148)
T1 sequence: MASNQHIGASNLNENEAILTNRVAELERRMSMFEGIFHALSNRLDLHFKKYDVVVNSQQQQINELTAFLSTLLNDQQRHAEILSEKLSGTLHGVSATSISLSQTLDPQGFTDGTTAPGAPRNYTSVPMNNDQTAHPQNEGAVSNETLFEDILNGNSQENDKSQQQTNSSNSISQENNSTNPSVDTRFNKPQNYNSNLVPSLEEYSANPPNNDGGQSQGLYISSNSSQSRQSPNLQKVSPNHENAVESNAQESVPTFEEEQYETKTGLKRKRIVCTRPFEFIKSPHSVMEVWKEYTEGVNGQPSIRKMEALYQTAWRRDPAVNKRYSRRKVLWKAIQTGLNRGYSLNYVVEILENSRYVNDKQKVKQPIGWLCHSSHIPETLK
Assay: PBM E-score (8-mer binding enrichment) (E-score (-0.5 to 0.5)); higher = stronger / more preferred TF binding; most listed sequences are background and not binding sites
Conditions: protein concentration: 200 nM; construct: GST-full length
How it was run: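 Bound GST-tagged yeast transcription factors, applied at about 100-200 nM to double-stranded universal all-10-mer Agilent arrays, were detected with fluorescent anti-GST. Scans were normalised with masliner. A modified Wilcoxon-Mann-Whitney statistic, the E-score, was assigned to each ungapped eight-base word pooled with its reverse complement by the Universal PBM Analysis Suite.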

First: ACGCTGAT
Second: GTAAAATA
The “PBM E-score” value of the first is lower: -0.0888 for the first, 0.0456 for the second.

First: ATAGCTTG
Second: CCACCTTA
The “PBM E-score” value of the first is lower: -0.0936 for the first, -0.0186 for the second.

First: CAGTGTCC
Second: GTCAGGAA
The “PBM E-score” value of the first is higher: 0.348 for the first, 0.0369 for the second.

First: ACGGCGTC
Second: CGTATAAC
The “PBM E-score” value of the first is lower: -0.068 for the first, -0.0592 for the second.

First: AATTGGTG
Second: GCGTCCAC
The “PBM E-score” value of the first is lower: -0.143 for the first, -0.0873 for the second.

Compared with CATTTCCA, GCTTAAAA is lower in “PBM E-score” value: 0.186 for the first, -0.0428 for the second.

Compared with ATACTGCC, AATGAGCG is higher in “PBM E-score” value: 0.0735 for the first, 0.159 for the second.

Compared with CGATATCC, ACTCACTG is lower in “PBM E-score” value: 0.0314 for the first, -0.123 for the second.

First: AAGTGTAA
Second: CAACGGCC
The “PBM E-score” value of the first is higher: -0.0767 for the first, -0.165 for the second.

First: AACAACAA
Second: CGTGTGCA
The “PBM E-score” value of the first is higher: 0.086 for the first, -0.173 for the second.

First: AAACGCGC
Second: CACCCGTC
The “PBM E-score” value of the first is higher: -0.0897 for the first, -0.12 for the second.

Going from CAAGTGGG to ACAGGTAG, the “PBM E-score” value falls from -0.0703 to -0.0716.

Compared with AGCAAGGA, AAAGTCAT is higher in “PBM E-score” value: -0.072 for the first, 0.0858 for the second.

Compared with AGCCATTG, CACGAGGG is lower in “PBM E-score” value: -0.0669 for the first, -0.233 for the second.

Compared with AGGACTAA, AGATCCAC is lower in “PBM E-score” value: 0.309 for the first, 0.102 for the second.

First: GAGCGGAA
Second: AATGTGAC
The “PBM E-score” value of the first is lower: 0.0283 for the first, 0.0889 for the second.

Compared with AGTCGTAC, ATCCTCGG is higher in “PBM E-score” value: -0.0642 for the first, 0.129 for the second.

Going from TGGAGCAA to AGAATAGC, the “PBM E-score” value falls from 0.0733 to 0.016.

First: ACGAGGGG
Second: GCGTTGAC
The “PBM E-score” value of the first is lower: -0.34 for the first, -0.0906 for the second.

First: CCCAATAA
Second: ACTGCGGG
The “PBM E-score” value of the first is lower: -0.147 for the first, -0.124 for the second.

Going from ATCAGACG to GCAGGTTA, the “PBM E-score” value falls from -0.154 to -0.233.

Going from AAATGACT to TACTGCTA, the “PBM E-score” value falls from 0.0423 to -0.0837.

First: AGGGCCCT
Second: ATCTGCTC
The “PBM E-score” value of the first is lower: -0.139 for the first, -0.134 for the second.

First: AAACACAT
Second: CGTGGAGA
The “PBM E-score” value of the first is higher: 0.0288 for the first, -0.0918 for the second.

First: ATGAGCGG
Second: GGCTTAAC
The “PBM E-score” value of the first is lower: -0.175 for the first, -0.116 for the second.

First: ACGATTCG
Second: GAGGCAAC
The “PBM E-score” value of the first is higher: -0.0302 for the first, -0.263 for the second.

Compared with GTTGGTAA, ACGTCCAA is higher in “PBM E-score” value: 0.0523 for the first, 0.142 for the second.

First: TCCACCGA
Second: CGCTGCTA
The “PBM E-score” value of the first is higher: -0.0613 for the first, -0.121 for the second.

Compared with AAGGGATG, GCTTATAC is higher in “PBM E-score” value: -0.119 for the first, -0.0678 for the second.

Going from AGAGAGTA to TCTGGAAA, the “PBM E-score” value rises from -0.122 to -0.0457.

First: CCCAGGTA
Second: CCCCTCGA
The “PBM E-score” value of the first is lower: -0.116 for the first, -0.0177 for the second.

Going from CAATGGGC to CGCGATAG, the “PBM E-score” value rises from -0.143 to -0.0603.

Compared with AACAGCCC, ATCGTACG is lower in “PBM E-score” value: 0.0239 for the first, 0.0214 for the second.

First: AAACGCAC
Second: GAGAACTC
The “PBM E-score” value of the first is higher: -0.0443 for the first, -0.162 for the second.

First: AGTGCCTC
Second: GTTGCAAA
The “PBM E-score” value of the first is lower: -0.127 for the first, 0.115 for the second.

First: AATTAATC
Second: AATAGCCA
The “PBM E-score” value of the first is higher: 0.0989 for the first, 0.0891 for the second.

Going from AGGGTCTC to CTGCATGC, the “PBM E-score” value rises from -0.25 to -0.0271.

First: CTCCGCGC
Second: GACACTAA
The “PBM E-score” value of the first is lower: -0.00855 for the first, 0.211 for the second.

First: AAGATCAA
Second: GATCTCAC
The “PBM E-score” value of the first is higher: 0.0239 for the first, -0.0662 for the second.

Compared with ATCTATGC, TCTCGTCA is lower in “PBM E-score” value: 0.133 for the first, -0.0168 for the second.

First: CCGACTAA
Second: CCAATGCG
The “PBM E-score” value of the first is higher: 0.0907 for the first, -0.199 for the second.

Compared with ACCATTTA, CTGCGGTA is lower in “PBM E-score” value: 0.0929 for the first, 0.0889 for the second.

Going from GTTGAAGA to TTACCTAA, the “PBM E-score” value falls from 0.0838 to 0.00814.

Going from GGGCGTAC to GAATATTA, the “PBM E-score” value rises from -0.0104 to 0.19.

First: AAACCGCC
Second: CCCAGCTA
The “PBM E-score” value of the first is higher: -0.0343 for the first, -0.208 for the second.

Compared with GCTCATCC, ACGCCCCC is lower in “PBM E-score” value: -0.219 for the first, -0.284 for the second.

Compared with CGCACGTA, TTCACAAA is higher in “PBM E-score” value: -0.138 for the first, 0.0203 for the second.

First: CAGGGATA
Second: CAGACGTA
The “PBM E-score” value of the first is lower: -0.122 for the first, 0.0031 for the second.

First: GACCAAGA
Second: GAGATTGA
The “PBM E-score” value of the first is higher: -0.00983 for the first, -0.0741 for the second.

First: CATTCCCA
Second: ACCTGGAA
The “PBM E-score” value of the first is lower: 0.0356 for the first, 0.0986 for the second.

First: ATGCCGCA
Second: AGACGACA
The “PBM E-score” value of the first is lower: 0.0532 for the first, 0.138 for the second.

Going from ATATCTGA to ACCATAAG, the “PBM E-score” value falls from 0.112 to -0.115.

Compared with CCTCAAAC, CCACCCCG is lower in “PBM E-score” value: -0.0717 for the first, -0.211 for the second.

First: AATGTCTC
Second: ATTCTAAG
The “PBM E-score” value of the first is higher: 0.463 for the first, 0.154 for the second.

Going from CCCTCCCC to AACAATGA, the “PBM E-score” value rises from -0.125 to 0.193.

Compared with AGGTCCGA, CTAGCTCC is lower in “PBM E-score” value: 0.132 for the first, -0.148 for the second.

Compared with ACTCTTCT, GAAGAGGA is higher in “PBM E-score” value: -0.215 for the first, -0.152 for the second.

Compared with CCCGCGCC, AGAACGTA is higher in “PBM E-score” value: -0.216 for the first, -0.0851 for the second.

Going from AATTAGCG to AGTAGCCG, the “PBM E-score” value falls from 0.0486 to -0.0737.

First: ACTTCCAG
Second: AGAGTAAT
The “PBM E-score” value of the first is lower: -0.219 for the first, 0.139 for the second.

Compared with TCATTGCA, GAACTCGC is higher in “PBM E-score” value: -0.019 for the first, 0.0554 for the second.

Compared with TCTCAACA, AGGGACAG is higher in “PBM E-score” value: 0.0746 for the first, 0.107 for the second.

Going from CAATGCGA to CGCCCAAC, the “PBM E-score” value rises from -0.14 to -0.127.

Compared with ACCGCTGG, GCCCGTAA is higher in “PBM E-score” value: -0.0751 for the first, -0.0686 for the second.

Going from AGATCTAA to AGAGTGCG, the “PBM E-score” value rises from -0.112 to 0.0388.

Going from AAGGGTAT to GAAGTTGA, the “PBM E-score” value rises from 0.00629 to 0.00923.

Going from CGACCGAA to CAGAGAAG, the “PBM E-score” value falls from 0.104 to -0.18.

Compared with GGAATAGA, CCATAATC is lower in “PBM E-score” value: 0.169 for the first, 0.139 for the second.

Going from AGGCTGAC to ATGCCGTG, the “PBM E-score” value rises from -0.178 to 0.0686.

First: AAGCTAGC
Second: ATGAACAG
The “PBM E-score” value of the first is lower: -0.138 for the first, 0.123 for the second.

Going from ACTGACAG to CAGGCGTC, the “PBM E-score” value falls from 0.14 to -0.207.

First: ATGAATAG
Second: AGAGGAAC
The “PBM E-score” value of the first is higher: 0.0311 for the first, -0.0926 for the second.

Compared with CTCCTCCA, CCCTTAGG is higher in “PBM E-score” value: -0.267 for the first, 0.0242 for the second.

First: GTGAAAAA
Second: AGCGTTAG
The “PBM E-score” value of the first is higher: 0.131 for the first, -0.107 for the second.

First: ACGAGAGT
Second: CAATCGAC
The “PBM E-score” value of the first is higher: 0.0188 for the first, 0.0133 for the second.

Compared with AGGTTTCC, AGCTTAGC is higher in “PBM E-score” value: -0.129 for the first, -0.079 for the second.

Going from AAAGCTGA to GTTATTTA, the “PBM E-score” value rises from -0.0697 to 0.104.

First: CCCAGCGA
Second: ACACAGAT
The “PBM E-score” value of the first is lower: -0.126 for the first, -0.0302 for the second.

Going from GGCCAACA to CAAGACAG, the “PBM E-score” value rises from -0.221 to 0.0634.

Compared with AGACGGTG, CAGCAATG is higher in “PBM E-score” value: -0.21 for the first, -0.1 for the second.

Going from CTACCTTC to ACGAGTTC, the “PBM E-score” value rises from -0.118 to 0.0338.

First: CAAAGACG
Second: AACGCCAC
The “PBM E-score” value of the first is higher: 0.104 for the first, -0.0561 for the second.

First: CATGATTA
Second: CTCATCGA
The “PBM E-score” value of the first is higher: 0.256 for the first, -0.0387 for the second.

First: AAAGCAGC
Second: ACTACCCG
The “PBM E-score” value of the first is lower: 0.0538 for the first, 0.0661 for the second.

First: ATGCCGAC
Second: GCCGCCGC
The “PBM E-score” value of the first is higher: -0.0749 for the first, -0.262 for the second.

First: ACCTCTCA
Second: ATGGGGAC
The “PBM E-score” value of the first is lower: -0.232 for the first, 0.239 for the second.
